In paper PMC4336329 (PLoS ONE, 2015):
The whole screen tested about 310,000 compounds, of which about 2,200 (0.71%) showed an effect of 50% or more. Effects have a minus sign here. Some of the results follow.

Target: human ether-à-go-go-related gene (hERG) potassium channel (human, UniProt Q12809)
Test: primary screen, population patch clamp on CHO cells stably expressing hERG

Sequence of human ether-à-go-go-related gene (hERG) potassium channel (Q12809 whole entry, looked up): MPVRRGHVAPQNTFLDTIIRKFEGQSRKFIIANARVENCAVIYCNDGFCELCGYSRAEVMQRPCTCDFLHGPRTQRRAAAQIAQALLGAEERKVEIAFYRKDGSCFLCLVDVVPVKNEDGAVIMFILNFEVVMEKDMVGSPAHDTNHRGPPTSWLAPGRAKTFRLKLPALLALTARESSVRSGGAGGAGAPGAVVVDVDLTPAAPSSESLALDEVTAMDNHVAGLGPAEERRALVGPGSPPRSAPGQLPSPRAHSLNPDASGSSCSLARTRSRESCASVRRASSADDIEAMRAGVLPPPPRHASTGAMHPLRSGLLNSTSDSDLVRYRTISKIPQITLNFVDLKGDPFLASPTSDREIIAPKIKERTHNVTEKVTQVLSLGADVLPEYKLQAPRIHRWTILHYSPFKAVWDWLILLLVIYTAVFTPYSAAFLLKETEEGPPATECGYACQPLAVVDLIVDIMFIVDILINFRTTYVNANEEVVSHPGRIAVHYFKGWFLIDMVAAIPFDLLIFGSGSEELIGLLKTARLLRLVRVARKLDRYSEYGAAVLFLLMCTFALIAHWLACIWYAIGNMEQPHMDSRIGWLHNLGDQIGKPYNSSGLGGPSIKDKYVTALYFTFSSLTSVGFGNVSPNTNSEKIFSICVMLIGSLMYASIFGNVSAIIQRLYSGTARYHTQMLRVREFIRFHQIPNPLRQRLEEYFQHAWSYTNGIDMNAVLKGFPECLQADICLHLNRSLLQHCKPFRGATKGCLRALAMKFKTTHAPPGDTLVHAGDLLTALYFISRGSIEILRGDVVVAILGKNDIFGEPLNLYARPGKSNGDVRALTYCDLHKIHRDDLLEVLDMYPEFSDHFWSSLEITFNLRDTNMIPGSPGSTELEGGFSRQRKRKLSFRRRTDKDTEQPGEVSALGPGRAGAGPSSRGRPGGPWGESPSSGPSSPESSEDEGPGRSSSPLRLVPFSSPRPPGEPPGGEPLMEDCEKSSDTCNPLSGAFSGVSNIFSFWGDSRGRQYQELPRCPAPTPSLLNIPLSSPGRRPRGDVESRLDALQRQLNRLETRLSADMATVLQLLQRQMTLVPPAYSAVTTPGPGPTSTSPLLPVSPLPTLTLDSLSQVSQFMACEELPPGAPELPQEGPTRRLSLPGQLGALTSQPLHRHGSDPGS

Structure (SMILES)	hERG current change (%, negative = inhibition) at 1uM
CCN(CC)c1ccc(/C=N/NC(=O)C(O)c2ccccc2)cc1 (centres unmarked)	-1.26%
COC(=O)Nc1nc2ccc(SC(C)C)cc2[nH]1	10.1%
CCOC(=O)C1C(=O)NC2(C)CC1c1cc(OC)ccc1O2 (centres unmarked)	14.1%
COc1ccc(C)cc1S(=O)(=O)N(C)CC(N)=O	8.74%
CCn1c(=O)n(CC(=O)NCc2ccccc2OC)c(=O)c2ccccc21	8.78%
COc1ccccc1CNC(=O)c1ccc(-c2ccccc2Cl)o1	14%
Cc1cc(C)n(CC(=O)N/N=C/c2ccc(C)o2)n1	-0.565%
COc1ccc(NC(=O)c2ccc3ccccc3c2)cc1	16.4%
CCN(CC)C(=O)c1ccc(NC(=O)c2cccc(S(=O)(=O)N3CCN(Cc4ccccc4)CC3)c2)cc1	-10.7%
C=CCN1CC(c2nc3ccccc3n2Cc2ccccc2)CC1=O (centres unmarked)	2.6%
Cc1ccc(-n2nc3c(c2NC(=O)c2c(F)cccc2Cl)CS(=O)(=O)C3)cc1C	-13.9%
COc1ccc(C(=O)O)cc1S(=O)(=O)Nc1cccc(C(F)(F)F)c1	-4.34%
Cc1ccc(/C=N/NC(=O)CNC(=O)c2ccc(S(=O)(=O)N(C)C)cc2)cc1	14%
CC(NC(=O)c1ccc(Cl)s1)C1CCCO1 (centres unmarked)	15.6%
Cc1ccc(C=Nc2cc([N+](=O)[O-])ccc2C)s1	15.5%
CCCc1cc(C(N)=S)ccn1	10.8%
CCO[C@H]1c2c(ccc3ccc(=O)oc23)OC(C)(C)[C@@H]1O	15.3%
CC(C)c1ccc(OCC(=O)NNC(=S)NC(=O)c2cccs2)c(Br)c1	-2.15%
COc1ccc(/C=C2\SC(N3CCCCC3)=NC2=O)cc1OC	1.43%
COc1ccc(OC)c(/C=C/C(=O)Nc2cccc(S(=O)(=O)N3CCCC3)c2)c1	4.01%
CCOC(=O)c1sc2nc3c(cc2c1N)COC(C)(C)C3	21%
COc1ccc(C2=NN(C(=O)CCC(=O)O)C(c3ccccc3F)C2)cc1 (centres unmarked)	3.64%
O=C(/C=C/c1ccccc1)NC(=S)NNS(=O)(=O)c1ccccc1	6.7%

Structure (SMILES)	hERG current change (%, negative = inhibition) at 1uM
O=S(=O)(NC1=NCCCCC1)c1ccccc1Cl	13.6%
Cc1ccc(OCC(=O)Nn2cnnc2)c(Br)c1	0.167%
COC(=O)[C@H](CC(C)C)NS(=O)(=O)c1ccccc1	5.96%
Cc1ccc2c(CN3CCC(C)CC3)cc(=O)oc2c1	-1.03%
Cc1ccc(C)c(N2CCN(C(=O)c3ccc(CS(=O)Cc4ccc(Cl)cc4)o3)CC2)c1 (centres unmarked)	11.6%
O=C(NCc1nc(-c2ccccc2)no1)c1cccs1	2.93%
Cc1ccc(Nc2nc(N)nc(CSCCO)n2)cc1	15.5%
Cc1c(Cl)cccc1-n1c(SCC(=O)N2CCC(C(=O)O)CC2)nc2ccccc2c1=O	15.5%
CCOC(=O)C1CCN(C(=O)c2ccccc2N(C)S(=O)(=O)c2ccccc2)CC1	0.932%
Cc1ccc(F)cc1CNC(=O)c1cc(COc2ccc3ncccc3c2)on1	14.7%
COc1cc(CNCC2CCCO2)ccc1OCC(N)=O.Cl (centres unmarked)	7.9%
CCOC(=O)N1CCN(c2cc(NCCO)c([N+](=O)[O-])c3nonc23)CC1	14%
CCOc1ccc(CN2CCN(CC3CC3)CC2CCO)cc1 (centres unmarked)	-20.7%
O=C(O)CSC(=S)N1CC2CC(C1)c1cccc(=O)n1C2 (centres unmarked)	7.56%
O=C(OCC(=O)c1ccccc1Cl)c1cnccn1	6.94%
COCCSc1ccccc1C(=O)Nc1nnc(COC)s1	8.38%
Cc1cn(C(=O)c2cccc(Br)c2)c(C)n1	16.5%
COc1ccccc1CNC(=O)C1CSC2(C)CCC(=O)N12 (centres unmarked)	4.82%
O=C(O)C[C@H]1c2ccccc2S(=O)(=O)N1c1ccccc1	13.9%
Cc1ccsc1C1Nc2ccccc2-c2nc3ccccc3n21 (centres unmarked)	8.22%
CN(C(=O)c1nc(-c2ccccc2)n(-c2ccccc2)n1)C1CCS(=O)(=O)C1 (centres unmarked)	12%
O=C(COC(=O)[C@H](Cc1ccccc1)NS(=O)(=O)c1ccccc1F)NC1CCCCC1	1.02%
CC(=O)Nc1cccc(OCc2ccc(F)cc2)c1	8.2%

Structure (SMILES)	hERG current change (%, negative = inhibition) at 1uM
CN(C)CCNc1oc(/C=C/c2ccccc2)nc1C#N	-1.1%
COCCNC(=O)CSc1nc2ccccc2c(=O)n1CCC(=O)N1CCN(c2ccccc2)CC1	6.84%
COc1ccc(C(=O)c2sc(Nc3ccc(NC(C)=O)cc3)nc2C)cc1	12.5%
COc1ccc(-c2occ(C(=O)O)c2C(=O)O)cc1	-1.17%
C/C(=N\Nc1cc(N2CCOCC2)ncn1)c1ccccc1	12.1%
CC(=O)/C(N=Nc1c(C)n(C)n(-c2ccccc2)c1=O)=C(\C)O	15.1%
Cn1c(SCC(=O)c2ccc(O)c(O)c2)nnc1-c1cccs1	11.4%
C#CCOC(=O)Nc1cc(C)n(-c2ccccc2)n1	5.54%
CC(C)COC(=O)n1c(SCC(=O)N(C)C)nc2ccccc21	3.66%
COC(Cn1c(C)c(C(C)=O)c(C(C)=O)c1C)OC	11.6%
O=C(CCCn1c(=O)[nH]c2ccccc2c1=O)NC1CCCCCC1	0.995%
O=C(c1nc2ccccn2c1CNCCCn1ncc2ccccc21)N1CCCC1	-11.9%
N#CC1(c2ccccc2)CCN(C2CC(=O)N(c3ccc(F)cc3)C2=O)CC1 (centres unmarked)	18.4%
CCN(CC)S(=O)(=O)c1cc(C(=O)Oc2cccc(-c3cnc4ccccc4n3)c2)ccc1Br	18.5%
CN(C(=O)CN1CCC(NC(=O)C2CCCCC2)CC1)C1CCCCC1.Cl	6.42%
Cc1cccc(-c2noc(CCCC(=O)Nc3cccnc3)n2)c1	-4.05%
CC(C)OCCCNC(=O)C1CCC(CNS(=O)(=O)c2cccc3nsnc23)CC1 (centres unmarked)	1.82%
CNc1ccc(C(=O)c2ccccc2C(=O)O)cc1[N+](=O)[O-]	9.38%
Cn1c(SCC(=O)Nc2cccc(F)c2)nnc1-c1cccnc1	-6.1%
CCOC(=O)C1CCN(c2nc(C)cc(C)c2C#N)CC1	9.6%
O=[N+]([O-])c1ccc(C2CN=C(Nc3ccccc3)S2)cc1 (centres unmarked)	8.51%
CCC1CCCCN1CCCNC(=O)c1ccc2nc(N3CCCCC3)sc2c1 (centres unmarked)	4.74%
Cc1cc(C)nc(SCc2nc3ncccn3c2Br)n1	8.24%

Structure (SMILES)	hERG current change (%, negative = inhibition) at 1uM
CN1C(C(=O)Nc2ccc(C(=O)O)cc2)=C(O)c2ccccc2S1(=O)=O	14%
COc1ccccc1Cn1c(=S)[nH]c2cc(C(=O)N3CCN(c4ccccc4OC)CC3)ccc2c1=O	17.7%
CCC(C)NC(=O)CN(c1cc(C)ccc1OC)S(C)(=O)=O (centres unmarked)	5.6%
N#Cc1c2ccc(OCC(=O)NCc3ccco3)cc2n2ccccc12	15.6%
COc1ccc(CCNC(=O)c2cc(S(=O)(=O)N3CCCC3)cn2C)cc1OC	10.5%
Cc1cnc(C(=O)Nc2ccc(N3CCN(C(=O)OC(C)(C)C)CC3)cc2)cn1	14.9%
COc1ccc(S(=O)(=O)N2CCC(C(=O)N3CCN(C)CC3)CC2)cc1Cl	15%
Cc1ccc(NC(=O)c2cncc(Br)c2)c(O)c1	12.9%
COc1ccc(CC(=O)NC2CCN(CC(=O)N3CCCc4ccccc43)CC2)cc1OC.Cl	7.49%
COc1ccc2oc(/C=C/N(C)C)c(C(=O)c3ccc(Cl)cc3)c2c1	14%
CC1CN2C(c3ccc([N+](=O)[O-])cc3)=CSC2=N1 (centres unmarked)	-6.14%
Cc1ccc(NC(=S)N2CCCCC2CO)cc1C (centres unmarked)	2.18%
O=C(c1cccc(F)c1)N1CCCc2ccccc21	11.5%
O=c1[nH]c(C2CCN(S(=O)(=O)c3cccc([N+](=O)[O-])c3)CC2)nc2c1nnn2Cc1ccccc1	7.49%
c1cc2ccc3ccc(-n4cnnn4)c4ccc(c1)c2c34	-7.42%
Cc1ccc(N(CC(=O)Nc2ccc3c(c2)OCCO3)S(=O)(=O)c2c(C)n[nH]c2C)cc1	6.93%
CC(C)C(=O)Nc1nnc(SCC(=O)NCc2cccs2)s1	6.18%
CCCN(CC1CC1)c1nc(C)nc(Nc2c(Cl)cc(Cl)cc2Cl)c1Cl	4.48%
COc1ccc2c(C)c(C)c(=O)oc2c1OC	6.83%
COC(=O)C(O)(c1c[nH]c2ccccc12)C(F)(F)F (centres unmarked)	2.07%
CN(C)/C=C(\C#N)C(=O)Nc1ccc(F)cc1	4.58%
CC(=O)C[C@@H](O)CC(=O)[C@H]1OC(=O)CC/C=C\Cc2ccccc21	17.6%
Cc1ccc2c(CSc3nnnn3C)cc(=O)oc2c1	6.3%
